According to PubChem BioAssay AID686978 (National Center for Advancing Translational Sciences (NCATS), 2013):
Where “and” joins values, the source holds several entries; their conditions need not be identical. Identical values can stand only once. Hit rate of the full screen: of about 420,000 compounds, about 64,000 (15%) were called active. The shares of active, inactive and inconclusive entries below differ from those in the screen. Calls follow the shape of the dose curve; as a rule, active = well fitted inhibition curve with a large enough effect; inconclusive = small, poorly fitted or top-dose-only effect; inactive = flat fitted curve, though single readings scatter. Potencies beside an inconclusive call are fits to weak or partial responses and may not hold up.

Assay: qHTS for Inhibitors of human tyrosyl-DNA phosphodiesterase 1 (TDP1): qHTS in cells in absence of CPT; also: nearly all actives have a fitted effect of over 55% in size
Conditions: DT40 Tdp1-/- hTDP1 cells, no CPT, ATP luminescence, 48 h; activity change, negative = growth inhibition: at 46.2 µM (top of the series) unless noted
How it was run: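 Growth kinetics read by CellTiter-Glo luminescence after ≥48 hr at 37 °C. Cells: DT40 Tdp1-/- stably carrying human TDP1, 400 per well, compound exposure in the absence of CPT (DMSO vehicle).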
% is scaled to controls: 0 for no effect and ±100 for the full control effect; potency is read from the fitted curve at half-maximal effect; tags tell the direction and shape of the fitted curve.

| Structure (SMILES) | Potency | activity change, negative = growth inhibition |
| --- | --- | --- |
| O=C1c2ccccc2NC(c2ccc([N+](=O)[O-])cc2)N1O (centres undefined) | active: 18.4 µM |  |
| Cc1cc(C)cc(C(=O)OCC(=O)Nc2cccc(S(=O)(=O)NC3=NCCCCC3)c2)c1 | inconclusive: 8.2 µM [inhibitor, partial curve] |  |
| CCn1c(=O)cc(C(F)(F)F)[nH]c1=S | inconclusive: 20.6 µM [inhibitor, partial curve] |  |
| COc1cc(C)nc(Oc2ccc(=O)[nH]n2)n1 | inconclusive: 0.517 µM [inhibitor, full curve] |  |
| Cn1ccc(=S)c2ccccc21 | inconclusive: 20.6 µM [inhibitor, partial curve] |  |
| Cc1ccc(C)c(CC(=O)N2CCCC(c3cc(C(=O)Nc4ccccc4Cl)no3)C2)c1 (centres undefined) | inconclusive: 25.9 µM [inhibitor, single point] |  |
| CC(CCO)Nc1nc2c(c(=O)n(C)c(=O)n2C)n1Cc1cccc(Br)c1 (centres undefined) | active: 20.6 µM |  |
| CCN(CC(=O)Nc1ccc(C)c(S(=O)(=O)N(C)C)c1)Cc1ccccc1 | inconclusive: 29.1 µM [inhibitor, single point] |  |
| Cc1ccc(-n2cnc(N)c2C(=O)c2cccc([N+](=O)[O-])c2)cc1 | active: 29.1 µM |  |
| COc1ccc(NC(=O)c2oc3ccc(S(=O)(=O)N4CCC5(CC4)OCCO5)cc3c2C)cc1 | inconclusive: 35.5 µM [inhibitor, single point] |  |
| COC(=O)c1cc(-c2ccccc2)on1 |  | inactive: -24.4% |
| CCN(CC)S(=O)(=O)c1ccc(Cl)c(C(=O)NNC(=O)c2csc(N3CCOCC3)n2)c1 |  | inactive: 0.345% |
| Cc1ccc(Cn2cccc(NC(=O)NCc3ccccc3)c2=O)cc1 |  | inactive: -4.14% |
| CN(C)/C=N/c1c(C#N)nnn1Cc1ccccc1 |  | inconclusive: -33.1% [inhibitor] |
| CSC1=C(C#N)C(CC(C)C)C2=C(CCCC2=O)N1 (centres undefined) | inconclusive: 20.6 µM [inhibitor, partial curve] |  |
| Cc1cc(=O)[nH]c(SCC(=O)Nc2nnc(CC(C)C)s2)n1 | inconclusive: 25.9 µM [inhibitor, partial curve, poor fit] |  |
| COc1ccc(CN2CCCC(CO)(Cc3ccc(F)cc3)C2)cc1C (centres undefined) | inconclusive: 16.4 µM [inhibitor, partial curve] |  |
| O=C(Nc1cc(Cl)ccc1Oc1ccccc1)C1=COCCO1 | inconclusive: 29.1 µM [inhibitor, single point] |  |
| Cc1onc(-c2ccccc2)c1C(=O)N/N=C/c1cccs1 | inconclusive: 29.1 µM [inhibitor, single point] |  |
| CCn1c2c(c(=O)n3ncc(C(=O)Nc4cc(Cl)ccc4OC)c13)CN(Cc1ccc(OC)cc1)CC2 | inconclusive: 16.4 µM [inhibitor, single point] |  |
| N#Cc1c(-c2ccc(F)cc2)cc(C2CC2)nc1SCC(=O)c1cccs1 | inconclusive: 6.51 µM [inhibitor, partial curve] |  |
| Cc1c(C(=O)OCCOc2ccccc2)[nH]c2c1C(=O)CC(c1ccc(C(C)(C)C)cc1)C2 (centres undefined) | inconclusive: 7.31 µM [inhibitor, partial curve] |  |

| Structure (SMILES) | Potency | activity change, negative = growth inhibition |
| --- | --- | --- |
| COC(=O)c1cc(S(=O)(=O)Nc2ccc(C)c(F)c2)c[nH]1 | inconclusive: 18.4 µM [inhibitor, single point] |  |
| CCOc1ccc(Nc2oc(-c3ccccc3Cl)nc2C#N)cc1 | inconclusive: 11.6 µM [inhibitor, partial curve] |  |
| Cc1ccc(S(=O)(=O)N2CC3C(=O)C[C@@H](c4ccccc4)N(S(=O)(=O)c4ccc(CCCOCCOCCNC(=O)OC(C)(C)C)cc4)C3CC2c2ccccc2)cc1 (some centres undefined) | inconclusive: 2.06 µM [inhibitor, partial curve] |  |
| O=C(N/N=C/c1ccc(Cl)cc1)c1cc2c(s1)-c1ccccc1CC2 | active: 5.17 µM |  |
| COCCNC(=O)[C@H]1N2C(=O)c3ccccc3C2SC1(C)C (some centres undefined) | inconclusive: 6.51 µM [inhibitor, single point] |  |
| CCCCCCCCC(=O)Nc1cc(C)ccc1OC | inconclusive: 7.31 µM [inhibitor, partial curve] |  |
| CC(=O)NNc1ncnc2c1cnn2-c1ccc(C)c(Cl)c1 |  | inactive: -23.5% |
| Cc1nc2ccc(C(=O)N/N=C/c3cc([N+](=O)[O-])ccc3O)cc2[nH]1 |  | inactive: 9.03% |
| O=C(Nc1cccc(/C=C/c2ccccn2)c1)c1ccc(-n2cncn2)c([N+](=O)[O-])c1 | active: 6.51 µM |  |
| O=S(=O)(c1cccc(S(=O)(=O)N2CCCC2)c1)c1cccc(S(=O)(=O)N2CCCC2)c1 | inconclusive: 18.4 µM [inhibitor, single point] |  |
| O=C(NCC(=O)N1CCN(c2ncccn2)CC1)c1ccccc1F |  | inactive: 3.32% |
| COc1ccc(S(=O)(=O)N2CCN(C(=O)c3c(C)nn(-c4ccccc4)c3Cl)CC2)cc1 | active: 23.1 µM |  |
| CC1CN(C(=O)NCc2ccccc2)c2cc(Cl)ccc2O1 (centres undefined) | inactive and inconclusive: 23.1 µM [inhibitor, partial curve] |  |
| O=C(c1cc(-c2ccco2)nn1-c1cccc(Cl)c1)N1CCCCC1 | active: 16.4 µM |  |
| Cc1cc(SCC(=O)OCC(=O)NCC2CCCO2)c(C)cc1Br (centres undefined) | inconclusive: 10.3 µM [inhibitor, partial curve] |  |
| Cc1ccccc1OCC(=O)OCC(=O)NC1CCCCCC1 |  | inactive: 1.51% |
| COc1ccc(N2CCN(C(=O)c3cc(=O)c4cc(C)cc(C)c4o3)CC2)cc1 | inconclusive: 18.4 µM [inhibitor, single point] |  |
| Cc1ccc(S(=O)(=O)Nc2ccc3oc(=O)sc3c2)c(C)c1 | inconclusive: 29.1 µM [inhibitor, single point] |  |
| COc1ccc(NC(=O)c2ccc([N+](=O)[O-])s2)c([N+](=O)[O-])c1 |  | inactive: -7.81% |
| CCOC(=O)C1CCN(C(=O)CCc2nc3ccccc3[nH]2)CC1 | inconclusive: 11.6 µM [inhibitor, partial curve] |  |
| COc1cccc(CNC(=O)c2cc(-c3ccc(Cl)s3)nc3ccccc23)c1 | inconclusive: 25.9 µM [inhibitor, single point] |  |
| CCc1ccc(NC(=O)C2CCCN(S(C)(=O)=O)C2)cc1 (centres undefined) |  | inconclusive: -34.6% [inhibitor] |
